Measured values from the supplement of paper PMC10126150.
Sequences with one replicate were seen in a single cluster, so their values are uncertain.

tested on: ATP; experiment: switch fluorescence ratio, 500 uM ATP over buffer (Cy3 cluster intensity, sum of 5 cycles each) (fold (ratio)); higher = stronger signal-on switching upon ATP binding; sequences stand for … in TCGTCGGCAGCGTCAGATGTGTATAAGAGACAGTTTTTTTTTTTTTTTTTTTTTTTTT…TC; details: aptamer strand: ATP DNA aptamer (quencher-CACCTGGGGGAGTATTGCGGAGGAAGG + anchor), 100 nM annealed; ATP concentration: 500 uM; one replicate
Procedure, shortened: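 Exposure to 500 uM ATP lasted 15 min at 22 °C before imaging, and a selection-buffer image was taken beforehand, for Cy3-labelled switching-strand clusters on a modified Illumina MiSeq flow-cell annealed to 100 nM quencher-labelled ATP aptamer. Five buffer/ATP cycles were run with NaOH stripping and re-annealing between them. The fluorescence ratio per cluster is summed target-cycle over summed buffer-cycle Cy3 intensity, averaged per switch-domain sequence. Clusters outside 100-1000 RFU were excluded.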

Sequence | switch fluorescence ratio
CCTGTCTATC | 1.07
CCTGTGGAGG | 1
CCTGTGTGGG | 1.03
CCTGTTATTG | 0.981
CCTGTTGATC | 1
CCTGTTTAGC | 1.02
CCTTAATTGT | 1.02
CCTTATGCTC | 1.32
CCTTATTAGA | 0.984
CCTTCAGTAG | 2.61
CCTTCATGCT | 1.08
CCTTCGAAGC | 2.4
CCTTCTGATG | 1.79
CCTTGACAAT | 2.12
CCTTGACTCC | 1.42
CCTTGATTTC | 0.977
CCTTGCAGG | 1.21
CCTTGGAGGT | 1.04
CCTTGGGAGG | 0.945
CCTTGGGCTA | 6.07
CCTTGGTTGT | 0.975
CCTTGTACAG | 1.01
CCTTTAAGAT | 1.06
CCTTTGAT | 0.99
CCTTTGGTGA | 1.05
CCTTTGTGAG | 0.971

Sequence | switch fluorescence ratio
CCTTTTACAG | 0.997
CGAAAAACAT | 1.01
CGAAAAACGG | 0.998
CGAAAAAGGG | 0.994
CGAAACTCAT | 1.02
CGAAAGATAG | 1.05
CGAAATAAGC | 1.09
CGAACAAGTG | 1.04
CGAACCTGTT | 0.976
CGAACGGTGC | 2.04
CGAAGAAAAC | 1.05
CGAAGAGGAT | 0.986
CGAAGCACTT | 2.04
CGAAGGATTC | 1.1
CGAAGGGGAT | 0.988
CGAAGGGTA | 1.02
CGAAGGGTTC | 1.02
CGAAGTAGTT | 1.04
CGAAGTGAAT | 1.06
CGAAGTTGTG | 0.95
CGAATAGGAG | 0.945
CGAATGATGT | 1.02
CGAATGTAA | 1.35
CGAATGTAAG | 0.993
CGAATTGTTA | 0.956
CGACAAATGA | 1.14

Sequence | switch fluorescence ratio
CGACAAATT | 1.06
CGACAACGG | 0.997
CGACAAGTGA | 1.1
CGACACCTTA | 1.09
CGACACGGTG | 0.992
CGACAGCCAA | 3.67
CGACAGGACG | 1.16
CGACAGGTGA | 1.02
CGACAGTGAG | 1.03
CGACATAATT | 1.05
CGACATCTAC | 1.84
CGACATGCCT | 1.01
CGACCCAAA | 1.15
CGACCCATG | 0.955
CGACCGCGAG | 1.2
CGACCGCGGC | 1.71
CGACCTTTCA | 1.08
CGACGAAGGA | 1.23
CGACGAAGGT | 1.13
CGACGCGAAA | 3.16
CGACGGGCTT | 1.05
CGACGGTTTA | 1.07
CGACGTATT | 1.14
CGACGTCATC | 1.67
CGACGTCCCG | 0.926
CGACTAAAG | 0.981

Sequence | switch fluorescence ratio
CGACTACTAT | 1.07
CGACTCCTCC | 1.76
CGACTCGGCT | 0.963
CGACTCGTGG | 1
CGACTGTACG | 1.06
CGACTTGCAT | 1.46
CGAGAACGGA | 1.02
CGAGAATAGT | 1.01
CGAGACGCCC | 1.03
CGAGAGGCGC | 1.04
CGAGATGACT | 0.984
CGAGCAACGG | 1.13
CGAGCAGGTG | 3.35
CGAGCATCGA | 1.08
CGAGCATGCG | 0.984
CGAGCGGTAG | 1.15
CGAGCGGTG | 1.01
CGAGCGTGTT | 1.02
CGAGCTCTAA | 1.04
CGAGCTGATG | 1.02
CGAGCTGCCG | 1.12
CGAGGAAAAA | 1.02
CGAGGACGCG | 1
CGAGGACTGG | 0.997
CGAGGAGATT | 1.01
CGAGGATAAT | 1.04

Sequence | switch fluorescence ratio
CGAGGCGGTT | 1.05
CGAGGCTTTA | 1.42
CGAGGGAAAA | 0.995
CGAGGGCAAA | 2.77
CGAGGGCTAT | 1.15
CGAGGGGTGG | 0.994
CGAGGTGCGT | 1.01
CGAGGTGGG | 1.03
CGAGGTTTGG | 0.99
CGAGTAGCCC | 0.971
CGAGTCAATT | 1.51
CGAGTCAGGG | 1.1
CGAGTCCTCC | 1.06
CGAGTCGATA | 0.97
CGAGTCTGG | 0.945
CGAGTTACCT | 1.15
CGATACAGGT | 1.14
CGATAGGTTG | 0.938
CGATAGTGGG | 0.964
CGATATATCT | 0.992
CGATATTCTT | 0.967
CGATCACGCT | 1.07
CGATCACGTT | 0.988
CGATCAGCGT | 1.03
CGATCGTAT | 0.999
CGATCTACTC | 1.15

Sequence | switch fluorescence ratio
CGATGACAGC | 1.03
CGATGAGCTC | 1.01
CGATGGAATT | 1.1
CGATGGAGCA | 1.02
CGATGGAGTC | 0.974
CGATGGTCGG | 1.01
CGATGTCGGT | 0.975
CGATGTGGCG | 0.934
CGATGTGTA | 1.02
CGATTAAGTT | 0.999
CGATTCAGCG | 1.01
CGATTCCCC | 1.07
CGATTCCTGG | 1.04
CGATTGGAAT | 1.11
CGATTTTCAA | 0.995
CGATTTTGAC | 1.02
CGCAAAAAAT | 1.08
CGCAAACGTG | 1.66
CGCAAATGTG | 1.31
CGCAAATTTC | 3.67
CGCAACGCAC | 1.92
CGCAACTAGT | 1.42
CGCAAGTGTA | 1.32
CGCAAGTTTA | 1.08
CGCAATTAG | 6.73
CGCAATTGCT | 2.32

Sequence | switch fluorescence ratio
CGCACAGTGA | 1.05
CGCACCCGGG | 1.25
CGCACCCGGT | 1.53
CGCACGAGGT | 1.05
CGCACGGTTC | 1.24
CGCACTCAAA | 1.13
CGCACTCATC | 1.55
CGCAGACACT | 1.41
CGCAGATGTT | 0.974
CGCAGGAAGA | 0.991
CGCAGGAGGG | 1.03
CGCAGGGAAT | 0.988
CGCAGGGCGA | 1.02
CGCAGTCCTT | 1.2
CGCATAGCTG | 1.07
CGCATATTGG | 1.31
CGCATCATTG | 1.05
CGCATCTCTT | 1.18
CGCATGGTCT | 1.01
CGCATTGGAG | 1.04
CGCATTGGCG | 0.987
CGCATTGTAA | 1.1
CGCCAAGGGA | 1.04
CGCCACGGCT | 0.993
CGCCAGAATA | 1.04
CGCCAGACCT | 1.13

Sequence | switch fluorescence ratio
CGCCAGGGTG | 1.09
CGCCAGTATC | 1.04
CGCCATGGCT | 1.01
CGCCATGTTA | 1.02
CGCCATTCTA | 1.03
CGCCCAGTA | 1.14
CGCCCATCGA | 0.952
CGCCCGCATT | 4.28
CGCCCGTCAT | 1.05
CGCCCTGTTT | 0.972
CGCCGATTGC | 1.43
CGCCGGCTGT | 0.991
CGCCGTGTG | 0.966
CGCCGTTACA | 0.988
CGCCGTTCC | 1.05
CGCCTAAGCC | 0.994
CGCCTAGTGT | 1.05
CGCCTCCAAT | 1.49
CGCCTGAAGC | 1.01
